# Reference: PubChem BioAssay AID624296 (National Center for Advancing Translational Sciences (NCATS), 2012)
# Values joined by “and” are separate entries in the source; they are usually repeats but may differ in a detail not shown here. Equal entries are not always repeated. Among all 350,000 compounds or so, about 9,900 (2.8%) were called active. This list was built around the results that the source calls inconclusive (neither active nor inactive); the mix of calls is not that of the screen. The call rests on the fitted dose curve; in most records, active means well fitted activation curve with a large enough effect; inconclusive means small, poorly fitted or top-dose-only effect; inactive means no such curve, though single readings can be large or run the other way. Potencies of inconclusive entries are doubtful fits and often do not repeat.
# Test: A quantitative high throughput screen for small molecules that induce DNA re-replication in MCF 10a normal breast cells. Further: nearly all actives have a fitted effect of over 50% in size. On activity, positive = re-replication: % of control where 0% means no effect.
# Details: MCF 10A DNA re-replication, Hoechst nuclear intensity, 48 h; activity, positive = re-replication: at 46.1 µM (top of the series)
# Potency means the concentration at half of the fitted maximal effect; tags describe the fitted curve by direction and shape.
Structure (SMILES),Potency,"activity, positive = re-replication"
COc1ccc(CN(CC(=O)NCc2ccc(F)cc2)C(=O)c2csnn2)cc1,"inconclusive: 29.1 µM [activator, single point]",–
O=C(NC1CCS(=O)(=O)C1)C12CC3CC(CC(C3)C1)C2 (stereo unspecified),"inconclusive: 0.0366 µM [activator, full curve, poor fit]",–
COc1ccc(-c2[nH]ncc2CNC(C)c2ccccc2Cl)cc1F (stereo unspecified),"inconclusive: 29.1 µM [activator, single point]",–
O=C1NC(c2ccc(Br)cc2)Nc2sc3c(c21)CCC3 (stereo unspecified),inactive,–
Clc1ccc(COn2c(-c3ccc(Cl)cc3)nc3ccccc32)cc1,active: 16.4 µM,–
COc1ccc(/C=C2\SC(=S)NC2=O)cc1OS(=O)(=O)c1ccc(NC(C)=O)cc1,"inconclusive: 0.146 µM [activator, full curve, poor fit]",–
COCCn1c(SCC(=O)Nc2cc(C(C)(C)C)nn2-c2ccccc2)nc2ccccc2c1=O,inactive,–
CSc1cc(-c2ccc(Cl)cc2)c(C(=O)NC(C)C)s1,"inconclusive: 23.1 µM [activator, single point]",–
Cc1ccc(OCC(=O)N/N=C/c2cn(Cc3ccccc3)c3ccccc23)cc1,"inconclusive: 29.1 µM [activator, partial curve, poor fit]",–
O=C(Nc1cccc(C(F)(F)F)c1)c1cccnc1N1CCN(c2ccccc2)CC1,"inconclusive: 20.6 µM [activator, single point]",–
S=C1NCN(Cc2cccnc2)CN1,inactive,–
COc1ccc(Nc2oc(COc3ccccc3F)nc2C#N)cc1,"inconclusive: 29.1 µM [activator, single point]",–
COc1ccc(CNCc2ccc3ccccc3c2)c(OC)c1,inactive,–
O=C(NC1CC(=O)N(c2ccccc2)C1)C1CC1 (stereo unspecified),inactive,–
COc1ccccc1CNC(=O)Cn1c(=O)c2cccn2c2cccnc21,"inconclusive: 25.9 µM [activator, partial curve, poor fit]",–
O=S(=O)(c1ccc2c(c1)OCCO2)N1CCC(O)(c2ccc(Cl)cc2)CC1,inactive,–
COc1ccc([C@H]2CC(=O)C=C(c3ccc(C)c4ccccc34)C2)cc1,"inconclusive: 32.6 µM [activator, single point]",–
COc1ccccc1-c1sc2ccccc2c1-c1ccc(OCCN2CCOCC2)cc1,inactive,–
NNC(=O)c1[nH]c2ccccc2c1-c1ccccc1,–,inconclusive: 314% [activator]
O=C(O)c1cccc(-c2ccc(/C=N/Nc3ccc([N+](=O)[O-])cc3)o2)c1,active: 18.4 µM,–
CCOc1ccccc1NC(=O)CC1Nc2cc(C)c(C)cc2NC1=O (stereo unspecified),active: 18.4 µM,–
Cc1cccc(N(CC(O)CON=C2c3ccccc3-c3ccccc32)S(C)(=O)=O)c1 (stereo unspecified),active: 16.4 µM,–

Structure (SMILES),Potency,"activity, positive = re-replication"
C#CCOCCOCCOCCNc1nc(N2CCN(C(=O)[C@H]([C@@H](C)CC)n3cc(CCC(=O)O)nn3)CC2)nc(N2CCN(C(=O)[C@H](CCCCN)n3cc(CCC(=O)O)nn3)CC2)n1,"inconclusive: 0.0052 µM [activator, full curve, poor fit]",–
COc1ccc(C2C(C(=O)c3ccc(C)o3)=C(O)C(=O)N2c2cc(C)on2)cc1OC (stereo unspecified),inactive,–
CC(C)c1ccccc1NC(=O)c1cccc(NC(=O)c2ccccc2)c1,"inconclusive: 20 µM [activator, single point]",–
CC1Cc2cc(S(=O)(=O)CCC(=O)NCc3ccco3)ccc2N1C(=O)C1CC1 (stereo unspecified),"inconclusive: 29.1 µM [activator, single point]",–
COC(=O)CC1C(=O)NCCN1C(=S)NC(=O)c1sc2ccccc2c1Cl (stereo unspecified),inactive,–
COc1cc2sc3ccc(C#Cc4ccccn4)cc3c(=O)c2cc1OC,"inconclusive: 0.58 µM [activator, full curve]",–
COc1ccc(S(=O)(=O)Nc2cc3c4c(c2)CCC(=O)N4CCC3)cc1C,inactive,–
CS(=O)(=O)N1CCc2cc(C(=O)N3CCCC3)ccc21,inactive,–
O=C(CSc1nnc(SCc2ccccc2)s1)N/N=C/c1ccc(Cl)cc1Cl,"inconclusive: 18.4 µM [activator, single point]",–
Cc1ccc(/C=N/NC(=O)C(=O)N/N=C/c2ccc(C)o2)o1,inactive,–
COc1cccc(N2CCN(C(=O)c3ccc(CS(=O)c4ccccc4C)o3)CC2)c1 (stereo unspecified),"inconclusive: 0.411 µM [activator, full curve, poor fit]",–
COc1ccc(CNS(=O)(=O)c2cc3c4c(c2)C(C)C(=O)N4CCC3)cc1 (stereo unspecified),"inconclusive: 29.1 µM [activator, single point]",–
Cc1ccc(/C=N/NC(=O)COc2ccccc2-c2ccccc2)cc1,"inconclusive: 0.461 µM [activator, full curve, poor fit]",–
COc1ccccc1NC(=S)NCc1ccc(Cl)cc1,"inconclusive: 3.26 µM [activator, full curve, poor fit]",–
COC(=O)c1sc(NC(=O)CSc2nncs2)c(C(=O)OC)c1C,"inconclusive: 4.11 µM [activator, single point]",–
CCc1c(Nc2ccccc2Cl)nc(N)[nH]c1=O,"inconclusive: 25.9 µM [activator, single point]",–
O=C(CN1C(=O)CCSc2ccccc21)NC1CCCCC1,"inconclusive: 18.4 µM [activator, single point]",–
CCOc1ccc(C(=O)/C=C/c2cn(CN3CCN(C)CC3)c3ccccc23)cc1,active: 10.3 µM,–
O=S(=O)(Nc1ccc(O)c2ccccc12)c1ccc(OC(F)(F)F)cc1,"inconclusive: 20.6 µM [activator, single point]",–
CN(CC(=O)Nc1ccccc1C(F)(F)F)C(=O)C1=COCCO1,inactive,–
O=C(CCNC(=O)c1ccccc1Cl)Nc1nc(-c2ccccc2Cl)cs1,"inconclusive: 25.9 µM [activator, single point]",–
O=c1c2ccccc2nc(/C=C/c2ccc3c(c2)OCO3)n1CCCO,"inconclusive: 29.1 µM [activator, partial curve, poor fit]",–

Structure (SMILES),Potency,"activity, positive = re-replication"
N#CC(C#N)=C1c2cc(S(N)(=O)=O)ccc2-c2ccc(S(N)(=O)=O)cc21,"inconclusive: 32.6 µM [activator, partial curve, poor fit]",–
CCNC(=S)NNC(=O)c1cc(CC(C)C)nc2ccccc12,inactive,–
CCOC(=O)c1nn(-c2ccc(Br)cc2)cc1C(=O)c1cccc2ccccc12,"inconclusive: 2.31 µM [activator, partial curve]",–
COc1cc(F)cc(-c2ccc3c(c2)c(-c2cccs2)c(-c2cc(OC)cc(OC)c2)n3C)c1,"inconclusive: 29.1 µM [activator, single point]",–
CCCN1C(=O)/C(=C/c2cc(C)n(C)c2C)SC1=Nc1ccc(OC)cc1,"inconclusive: 25.9 µM [activator, single point]",–
CCCCCCn1c(-c2ccco2)nc2oc3cc(OC)ccc3c(=O)c2c1=O,"inconclusive: 18.4 µM [activator, partial curve, poor fit]",–
CCC(C)NCCCCOc1cc(C)cc(C(C)C)c1 (stereo unspecified),inactive,–
COc1ccc(CCn2c(=N)c(C(=O)NCC3CCCO3)cc3c(=O)n4cccc(C)c4nc32)cc1OC (stereo unspecified),"inconclusive: 23.1 µM [activator, partial curve]",–
C=CC[C@@H](CC(=O)N(CCO)Cc1ccccc1)C(=O)N[C@H](C)COC(=O)[C@@H](CC=C)Cc1ccc(F)cc1,"inconclusive: 13 µM [activator, partial curve, poor fit]",–
CC1=C(C(=O)OC2CCCCCCC2)C(c2cc3c(cc2Br)OCO3)CC(=O)N1 (stereo unspecified),active: 5.8 µM,–
O=C(NCc1nnc(SCC(=O)N2CCCCCC2)o1)c1ccccc1F,inactive,–
O=C(Cn1c(COc2ccccc2)nc2ccccc21)Nc1cccc(Cl)c1,"inconclusive: 18.4 µM [activator, single point]",–
O=C1[C@H]2CCCC[C@H]2C(=O)N1CCCCN1CCN(c2nsc3ccccc23)CC1,"inconclusive: 11.9 µM [activator, full curve] and inconclusive: 29.1 µM [activator, single point]",–
C#CCOc1ccc(C2C3=C(COC3=O)Nc3cc4c(cc32)OCO4)cc1OC (stereo unspecified),"inconclusive: 0.116 µM [activator, full curve, poor fit]",–
COCCN(C(=O)Cc1coc2cc(C)c(C)cc12)c1c(N)n(Cc2ccccc2)c(=O)[nH]c1=O,inactive,–
Cc1ccc(-c2noc(CCC(=O)NCCc3ccccc3Cl)n2)cc1,"inconclusive: 23.1 µM [activator, partial curve, poor fit]",–
CN(C)S(=O)(=O)c1ccc2c(c1)/C(=C/c1cc3c([nH]1)CCCC3)C(=O)N2,"inconclusive: 5.17 µM [activator, full curve, poor fit]",–
CCOc1ccc(CN(C)c2ccc(S(=O)(=O)N3CCN(C)CC3)cc2[N+](=O)[O-])cc1OC,"inconclusive: 16.4 µM [activator, partial curve]",–
CCCn1c(=N)c(S(=O)(=O)c2ccc(F)cc2)cc2c(=O)n3ccccc3nc21,"inconclusive: 6.51 µM [activator, single point]",–
CC1(C)CC(=O)C=C(NCC(O)c2ccccc2)C1 (stereo unspecified),"inconclusive: 2.06 µM [activator, full curve]",–
CC1(C)CC(=O)C2=C(C1)NC1=C(C(=O)c3ccccc31)C2c1ccc(Cl)cc1 (stereo unspecified),"inconclusive: 29.1 µM [activator, single point]",–
CN(CC(=O)Nc1cccc2ccccc12)C(=O)/C=C/c1cccs1,"inconclusive: 2.06 µM [activator, partial curve]",–
